# From PubChem BioAssay AID686979 (National Center for Advancing Translational Sciences (NCATS), 2013)
# The whole screen tested about 420,000 compounds, of which about 50,000 (12%) were called active. Inconclusive means that the source gave no clear call. Such entries were picked first, then a sample of the others. Calls come from the whole dose curve; as a rule, active = well fitted inhibition curve with a large enough effect; inconclusive = small, poorly fitted or top-dose-only effect; inactive = flat fitted curve, though single readings scatter. Potencies of inconclusive entries are left out as doubtful fits.
# Assay: qHTS for Inhibitors of human tyrosyl-DNA phosphodiesterase 1 (TDP1): qHTS in cells in presence of CPT; note: nearly all actives have a fitted effect of over 55% in size
# Settings: chicken DT40 Tdp1-/-;hTDP1 cells + 20 nM CPT, ATP luminescence, 48 h; activity change, negative = growth inhibition: at 46.2 µM (top of the series) unless noted
# Summary of the method: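 Chicken DT40 Tdp1-/- cells complemented with human TDP1, 400 cells/well, exposed to compounds plus 20 nM camptothecin for at least 48 h at 37 C; viability read as ATP content by CellTiter-Glo luminescence.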
# % is set by controls: 0 for no effect and ±100 for the full control effect; potency is the fitted concentration of half-maximal effect; tags give direction and shape of the fitted curve.
Structure (SMILES),Potency,"activity change, negative = growth inhibition"
COc1cc(C(CC(=O)N2CCCC2)c2c(OC)cc(OC)c3ccc(=O)oc23)cc(OC)c1OC (stereo not given),inactive,–
COc1ccc(Oc2ncc3ncc(=O)n(Cc4cccs4)c3n2)cc1,"inconclusive [inhibitor, single point]",–
CCC(=O)C1=C(c2ccccc2)N(C(=O)CC)n2c(nnc2C2CCCCC2)S1,inactive,–
Oc1ccc(Cl)cc1CNc1cccc2cccnc12,"inconclusive [inhibitor, single point]",–
COc1ccc(-c2cc(NC(C)=O)c3ncc(-c4cccc(C(C)=O)c4)n3c2)cc1OC,active: 20.6 µM,–
Cc1ccc(Sc2cc(C(=O)NCCN(C)C)c3ccccc3n2)cc1,"inconclusive [inhibitor, single point]",–
CC1=NN(c2ccc(C(=O)OC(C)C)cc2)C(=O)/C1=C\C=C\c1ccco1,"inconclusive [inhibitor, single point]",–
COc1ccc(S(=O)(=O)N2CCC(C(=O)NCCC(=O)NCc3ccccc3OC)CC2)cc1,inactive,–
CC1CC(C)CN(S(=O)(=O)N2CCCC(C(=O)NC(C)c3ccccc3)C2)C1 (stereo not given),"inconclusive [inhibitor, partial curve]",–
O=C(c1cccc(S(=O)(=O)N2CCOCC2)c1)N(Cc1ccco1)Cc1cccs1,"inconclusive [inhibitor, single point]",–
COc1cccc(C2NC(=S)NC(C)=C2C(=O)c2ccccc2)c1OC (stereo not given),"inconclusive [inhibitor, single point]",–
CCOc1ccc(CN2CCC(n3nccc3NC(=O)C3CC3)CC2)cc1CO,"inconclusive [inhibitor, single point]",–
O=C(Nc1nc2ccccc2[nH]1)c1cccc(Cl)c1,"inconclusive [inhibitor, single point]",–
CCOc1cc(/C=C2/SC(=Nc3ccccc3)N(Cc3cccnc3)C2=O)ccc1OCC#N,active: 16.4 µM,–
CCN(c1ccc(NC(=O)COC(=O)c2ccc3ccccc3n2)cc1)C(C)C,"inconclusive [inhibitor, full curve]",–
O=C(OCCc1cc2ccccc2c(=O)o1)N1CCOCC1,inactive,–
O=C(Nc1ccccc1[N+](=O)[O-])c1csnn1,inactive,–
COc1cc(CN2C[C@@H](CO)O[C@@H](n3cnc4c(NCc5ccncc5)ncnc43)C2)cc(OC)c1OC,inactive,–
O=[N+]([O-])c1ccc(Cc2ccccn2)c([N+](=O)[O-])c1,"inconclusive [inhibitor, single point]",–
COc1ccc(C2=NOC3(CC(=O)N(c4ccc(C)cc4)C3=O)C2)c(OC)c1 (stereo not given),inactive,–
COC(=O)c1c(-c2ccccc2)csc1NC(=O)C1CC=CCC1C(=O)O (stereo not given),"inconclusive [inhibitor, single point]",–
COC(=O)c1c(NC(=O)COC(=O)c2ccc(Cl)cc2[N+](=O)[O-])sc2c1CCCCC2,"inconclusive [inhibitor, single point]",–
CCOc1ccc2nc(SC3CC(=O)N(c4cccc(OC)c4)C3=O)sc2c1 (stereo not given),active: 3.26 µM,–
CCOc1ccccc1NC(=O)CSc1nnc(-c2ccccn2)n1Cc1ccco1,"inconclusive [inhibitor, single point]",–

Structure (SMILES),Potency,"activity change, negative = growth inhibition"
C/C=C/c1cccc(-c2nc(C(=O)N3CCOCC3)cc3c2[C@H](CCO)N(C(=O)NC(C)C)C3)c1,inactive,–
Cc1cc(C)c(S(=O)(=O)N2CCN(C(=O)c3c(C)nn(-c4ccccc4)c3Cl)CC2)c(C)c1,"inconclusive [inhibitor, partial curve, poor fit]",–
Cc1cc(-n2c(C)cc(C(=O)COc3ccc([N+](=O)[O-])cc3)c2C)no1,"inconclusive [inhibitor, full curve, poor fit]",–
O=C(COc1ccccc1Cl)NCCCN1CCOCC1,inactive,–
Cc1c(C(=O)N2CCN(CCc3ccccn3)CC2)oc2ccc(Cl)cc12,"inconclusive [inhibitor, single point]",–
COc1ccc(OC)c(/C=C2\C=Cc3ccccc32)c1,"inconclusive [inhibitor, single point]",–
COc1ccc(-c2csc(NC(=O)CSc3n[nH]c(N)n3)n2)cc1,"inconclusive [inhibitor, single point]",–
CC(C)CC(OC(=O)c1nsc(Cl)c1Cl)C(=O)NC1CCCC1 (stereo not given),inactive,–
C=CCOc1ccc(/C=C/C(=O)OCC(=O)NC2CCCCCCC2)cc1,"inconclusive [inhibitor, single point]",–
Cc1cc(C)n(CCC(=O)N=Nc2c(O)[nH]c3ccc(Br)cc23)n1,"inconclusive [inhibitor, single point]",–
COc1ccc2oc(C(=O)OCC(=O)NCCc3ccc(S(N)(=O)=O)cc3)c(C)c2c1,"inconclusive [inhibitor, single point]",–
COC(=O)c1c(SC)nc2ccccc2c1OCc1cc(C)ccc1C,inactive,–
Cc1ncc2c(c1CNC(=O)c1ccccc1F)CCN(C(=O)c1ccc3c(c1)OCCO3)C2,active: 0.058 µM,–
Cc1ccc(S(=O)(=O)N(C)C[C@@H]2Oc3ccc(NC(=O)Cn4cnnn4)cc3C(=O)N([C@@H](C)CO)C[C@H]2C)cc1,inactive,–
COC(=O)C1CCN(C(=O)C2CC(=O)N(c3ccc(C)c(Cl)c3)C2)CC1 (stereo not given),inactive,–
CC(C)c1ccc(CNC(=O)C2CC(=O)N(C3CCCCC3)C2)cc1 (stereo not given),inactive,–
CC(OC(=O)c1cccs1)C(=O)Nc1nc(-c2ccccc2)cs1 (stereo not given),"inconclusive [inhibitor, single point]",–
O=C(CCS(=O)(=O)c1ccccc1)Nc1nc2c(s1)CCCC2,"inconclusive [inhibitor, single point]",–
O=C(c1ccc(F)cc1)C1CCN(C(=S)Nc2ccc(F)cc2)CC1,"inconclusive [inhibitor, single point]",–
O=C(CSc1nc(-c2cccs2)cc(C(F)(F)F)n1)Nc1ccccc1Cl,"inconclusive [inhibitor, single point]",–
O=C(Nc1ccc2nc(SCC(=O)N3CCc4ccccc43)sc2c1)c1ccc(Cl)cc1,active: 9.2 µM,–
O=C(COC(=O)/C=C/c1ccc([N+](=O)[O-])cc1)NC(=O)NC1CCCCC1,–,inconclusive: -34% [inhibitor]
O=C(NC1CCCC1)C(c1ccccc1)n1c(CSCCOc2ccccc2)nc2ccccc21 (stereo not given),"inconclusive [inhibitor, single point]",–
C=CCN1C(=O)/C(=c2\sc3nc(=O)c(Cc4ccccc4)nn3c2=O)c2ccccc21,inactive,–

Structure (SMILES),Potency,"activity change, negative = growth inhibition"
Cc1c(CNC(=O)C2CCC(=O)N(CCc3ccccc3)C2)cnn1C (stereo not given),inactive,–
CCOc1ccc(CN(C)CC(O)COC(c2ccc(OC)cc2)c2ccc(OC)cc2)cc1 (stereo not given),"inconclusive [inhibitor, single point]",–
Cc1cccc(C(=O)Nc2sc3c(c2C(=O)Nc2ccccc2)CCC3)c1,inactive,–
COc1ccccc1CNS(=O)(=O)c1ccc(-n2cnnn2)c(OC)c1,inactive,–
COc1ccc2[nH]c(=O)c(CN(CC3CCCO3)C(=S)Nc3ccccc3)cc2c1 (stereo not given),"inconclusive [inhibitor, single point]",–
Cc1ccc(NC(=O)CN2C(=O)C(c3ccc(F)cc3)=NC2(C)C)c(C)c1,inactive,–
CCN(CCNS(=O)(=O)c1ccc2[nH]c(=O)sc2c1)c1ccccc1,"inconclusive [inhibitor, partial curve]",–
Cc1cccc(C(C)n2nnc3ccccc32)c1O (stereo not given),active: 23.1 µM,–
Cc1ccc(NN2C(=O)C=CC2=O)cc1,inactive,–
O=C(Nc1ccccc1)N(C1=NCCC1)c1ccc(OC(F)F)cc1,inactive,–
CS(=O)(=O)Nc1ccc(C2=NN(C(=O)c3ccco3)C(c3cccc(F)c3)C2)cc1 (stereo not given),"inconclusive [inhibitor, single point]",–
Cc1oc2c(c1C(=O)NCc1cccnc1)C(=O)c1ccccc1C2=O,active: 0.92 µM,–
COc1ccc(OC)c(S(=O)(=O)N2CCC(C(=O)N3CCCC3)CC2)c1,inactive,–
CCCCn1c(N)c(N(CC)C(=O)C(c2ccccc2)c2ccccc2)c(=O)[nH]c1=O,inactive,–
COc1ccc(NC(=O)Cn2c3ccccc3c3nc4n(c(=O)c32)CCS4)cc1OC,"inconclusive [inhibitor, single point]",–
COc1cc(C=O)cc(OC)c1[N+](=O)[O-],"inconclusive [inhibitor, single point]",–
C=CCOC(=O)C1=C(C)NC(=S)NC1/C=C/c1ccccc1 (stereo not given),"inconclusive [inhibitor, single point]",–
CCOc1ccccc1NC(=O)C(=O)NCC(c1cccnc1)N1CCN(c2ccccc2)CC1 (stereo not given),"inconclusive [inhibitor, single point]",–
CCCCN(C(=O)c1ccc(C)c(S(=O)(=O)N2CCOCC2)c1)c1c(N)n(CCCC)c(=O)[nH]c1=O,"inconclusive [inhibitor, single point]",–
O=C(COC(=O)c1cccc([N+](=O)[O-])c1)c1ccc(OCc2ccccc2)cc1,"inconclusive [inhibitor, single point]",–
COc1ccc(C(C(=O)NCc2ccccc2)n2c(=O)c(-c3ccco3)nc3ccccc32)cc1 (stereo not given),"inconclusive [inhibitor, single point]",–
COc1ccc(C[C@H]2CN3C(=NC[C@@H]3Cc3ccc(O)cc3)N2C[C@H](C)NC(=O)c2ccc(C)c(Br)c2)cc1,active: 4.61 µM,–
